Measured values: PMC9911399, “Two distinct binding modes provide the RNA-binding protein RbFox with extraordinary sequence specificity”
Changes are numbered by the printed parent chain; changes in the protein carry UniProt numbers. Some of the results follow.

T1: RBFOX1 RRM (Homo sapiens, UniProt Q9NWB1 109-208)
T1 sequence: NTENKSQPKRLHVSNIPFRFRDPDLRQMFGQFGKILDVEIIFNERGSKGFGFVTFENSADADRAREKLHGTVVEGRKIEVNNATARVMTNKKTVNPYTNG

B1: CCAAUAU (DNA:RNA)
RNA: GGGAGACCGGAAUUCAGAUUGUCCCCAAUAUUUAAAUCCCGUCGUAGCCACCA
DNA 1: CAATCTGAATTCCGGTCTCCC
DNA 2: TGGTGGCTACGACGGGATT
B2: GCAAGUU (DNA:RNA)
RNA: B1 RNA with C25G, U29G, A30U
DNA 1: CAATCTGAATTCCGGTCTCCC
DNA 2: TGGTGGCTACGACGGGATT
B3: GGACCGG (DNA:RNA)
RNA: B1 RNA with C25G, C26G, A28C, U29C, A30G, U31G
DNA 1: CAATCTGAATTCCGGTCTCCC
DNA 2: TGGTGGCTACGACGGGATT
B4: GGCUGCU (DNA:RNA)
RNA: B1 RNA with C25G, C26G, A27C, A28U, U29G, A30C
DNA 1: CAATCTGAATTCCGGTCTCCC
DNA 2: TGGTGGCTACGACGGGATT
B5: GGGGUAC (DNA:RNA)
RNA: B1 RNA with C25G, C26G, A27G, A28G, U31C
DNA 1: CAATCTGAATTCCGGTCTCCC
DNA 2: TGGTGGCTACGACGGGATT
B6: UAUGCCG (DNA:RNA)
RNA: GGGAGACCGGAAUUCAGAUUGUCCUAUGCCGUUAAAUCCCGUCGUAGCCACCA
DNA 1: CAATCTGAATTCCGGTCTCCC
DNA 2: TGGTGGCTACGACGGGATT
B7: GUAGGCU (DNA:RNA)
RNA: B1 RNA with C25G, C26U, A28G, U29G, A30C
DNA 1: CAATCTGAATTCCGGTCTCCC
DNA 2: TGGTGGCTACGACGGGATT
B8: UCUACGG (DNA:RNA)
RNA: B6 RNA with A26C, G28A, C30G
DNA 1: CAATCTGAATTCCGGTCTCCC
DNA 2: TGGTGGCTACGACGGGATT
B9: AACGACG (DNA:RNA)
RNA: B6 RNA with U25A, U27C, C29A
DNA 1: CAATCTGAATTCCGGTCTCCC
DNA 2: TGGTGGCTACGACGGGATT
B10: AUGCGCU (DNA:RNA)
RNA: B1 RNA with C25A, C26U, A27G, A28C, U29G, A30C
DNA 1: CAATCTGAATTCCGGTCTCCC
DNA 2: TGGTGGCTACGACGGGATT
B11: UGACGGU (DNA:RNA)
RNA: B1 RNA with C25U, C26G, A28C, U29G, A30G
DNA 1: CAATCTGAATTCCGGTCTCCC
DNA 2: TGGTGGCTACGACGGGATT
B12: CGCCCAU (DNA:RNA)
RNA: B1 RNA with C26G, A27C, A28C, U29C
DNA 1: CAATCTGAATTCCGGTCTCCC
DNA 2: TGGTGGCTACGACGGGATT
B13: AGACCUG (DNA:RNA)
RNA: B6 RNA with U25A, A26G, U27A, G28C, C30U
DNA 1: CAATCTGAATTCCGGTCTCCC
DNA 2: TGGTGGCTACGACGGGATT
B14: CAGGCGU (DNA:RNA)
RNA: B6 RNA with U25C, U27G, C30G, G31U
DNA 1: CAATCTGAATTCCGGTCTCCC
DNA 2: TGGTGGCTACGACGGGATT
B15: UACCUCU (DNA:RNA)
RNA: B6 RNA with U27C, G28C, C29U, G31U
DNA 1: CAATCTGAATTCCGGTCTCCC
DNA 2: TGGTGGCTACGACGGGATT
B16: CACGUAU (DNA:RNA)
RNA: B1 RNA with C26A, A27C, A28G
DNA 1: CAATCTGAATTCCGGTCTCCC
DNA 2: TGGTGGCTACGACGGGATT
B17: AUAAAUA (DNA:RNA)
RNA: B1 RNA with C25A, C26U, U29A, A30U, U31A
DNA 1: CAATCTGAATTCCGGTCTCCC
DNA 2: TGGTGGCTACGACGGGATT
B18: AUCGUCC (DNA:RNA)
RNA: B6 RNA with U25A, A26U, U27C, C29U, G31C
DNA 1: CAATCTGAATTCCGGTCTCCC
DNA 2: TGGTGGCTACGACGGGATT
B19: UCCCUGG (DNA:RNA)
RNA: B1 RNA with C25U, A27C, A28C, A30G, U31G
DNA 1: CAATCTGAATTCCGGTCTCCC
DNA 2: TGGTGGCTACGACGGGATT
B20: GGAUUAC (DNA:RNA)
RNA: B1 RNA with C25G, C26G, A28U, U31C
DNA 1: CAATCTGAATTCCGGTCTCCC
DNA 2: TGGTGGCTACGACGGGATT
B21: AGCUUGC (DNA:RNA)
RNA: B1 RNA with C25A, C26G, A27C, A28U, A30G, U31C
DNA 1: CAATCTGAATTCCGGTCTCCC
DNA 2: TGGTGGCTACGACGGGATT
B22: UGUUGUG (DNA:RNA)
RNA: B6 RNA with A26G, G28U, C29G, C30U
DNA 1: CAATCTGAATTCCGGTCTCCC
DNA 2: TGGTGGCTACGACGGGATT
B23: GAAGAGA (DNA:RNA)
RNA: B6 RNA with U25G, U27A, C29A, C30G, G31A
DNA 1: CAATCTGAATTCCGGTCTCCC
DNA 2: TGGTGGCTACGACGGGATT
B24: GAGGCGU (DNA:RNA)
RNA: B6 RNA with U25G, U27G, C30G, G31U
DNA 1: CAATCTGAATTCCGGTCTCCC
DNA 2: TGGTGGCTACGACGGGATT
B25: GAGUCCG (DNA:RNA)
RNA: B6 RNA with U25G, U27G, G28U
DNA 1: CAATCTGAATTCCGGTCTCCC
DNA 2: TGGTGGCTACGACGGGATT
B26: ACACGAC (DNA:RNA)
RNA: B1 RNA with C25A, A28C, U29G, U31C
DNA 1: CAATCTGAATTCCGGTCTCCC
DNA 2: TGGTGGCTACGACGGGATT
B27: UAGAAAU (DNA:RNA)
RNA: B1 RNA with C25U, C26A, A27G, U29A
DNA 1: CAATCTGAATTCCGGTCTCCC
DNA 2: TGGTGGCTACGACGGGATT
B28: AGCACCA (DNA:RNA)
RNA: B6 RNA with U25A, A26G, U27C, G28A, G31A
DNA 1: CAATCTGAATTCCGGTCTCCC
DNA 2: TGGTGGCTACGACGGGATT
B29: GCCGGCA (DNA:RNA)
RNA: B6 RNA with U25G, A26C, U27C, C29G, G31A
DNA 1: CAATCTGAATTCCGGTCTCCC
DNA 2: TGGTGGCTACGACGGGATT
B30: CCGUAUG (DNA:RNA)
RNA: B1 RNA with A27G, A28U, U29A, A30U, U31G
DNA 1: CAATCTGAATTCCGGTCTCCC
DNA 2: TGGTGGCTACGACGGGATT
B31: CCCCAGG (DNA:RNA)
RNA: B1 RNA with A27C, A28C, U29A, A30G, U31G
DNA 1: CAATCTGAATTCCGGTCTCCC
DNA 2: TGGTGGCTACGACGGGATT

molecular target: T1, RBFOX1 RRM; assay: EMSA; HiTS-Eq, 1 nM pool, 10 min; buffer printed only for the single-RNA assays: 10 mM Tris pH 7.5, 150 mM NaCl, 3.4 mM EDTA, 0.001% NP-40, 30 C; details: tags: His6 N-terminal (pET28a); label: 5' 32P
Summary of the method: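 A pool of RNA with 7 randomized nucleotides, 5′-radiolabelled and with DNA-annealed flanks, was equilibrated at 1 nM for 10 min in 50 µL with purified RbFox RRM, wild type or mutant, across increasing protein concentrations. Free RNA was separated by 8% native PAGE, excised, reverse-transcribed, barcoded by PCR and sequenced. Relative association constants were obtained from read-count changes of each RNA species versus the control reaction and normalised to the cognate motif.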

Row | Binder | binding signal
1 | B1 | 0.00142 KA relative to UGCAUGU
2 | B2 | 0.0128 KA relative to UGCAUGU
3 | B3 | 0.014 KA relative to UGCAUGU
4 | B4 | 0.0226 KA relative to UGCAUGU
5 | B5 | 0.0356 KA relative to UGCAUGU
6 | B6 | 0.014 KA relative to UGCAUGU
7 | B7 | 0.0108 KA relative to UGCAUGU
8 | B8 | 0.00665 KA relative to UGCAUGU
9 | B9 | 0.00377 KA relative to UGCAUGU
10 | B10 | 0.0127 KA relative to UGCAUGU
11 | B11 | 0.0205 KA relative to UGCAUGU
12 | B12 | 0.00281 KA relative to UGCAUGU
13 | B13 | 0.0122 KA relative to UGCAUGU
14 | B14 | 0.0136 KA relative to UGCAUGU
15 | B15 | 0.00134 KA relative to UGCAUGU
16 | B16 | 0.00307 KA relative to UGCAUGU

Row | Binder | binding signal
17 | B17 | 0.00163 KA relative to UGCAUGU
18 | B18 | 0.0088 KA relative to UGCAUGU
19 | B19 | 0.014 KA relative to UGCAUGU
20 | B20 | 0.0169 KA relative to UGCAUGU
21 | B21 | 0.0314 KA relative to UGCAUGU
22 | B22 | 0.0291 KA relative to UGCAUGU
23 | B23 | 0.00922 KA relative to UGCAUGU
24 | B24 | 0.0192 KA relative to UGCAUGU
25 | B25 | 0.0128 KA relative to UGCAUGU
26 | B26 | 0.0059 KA relative to UGCAUGU
27 | B27 | 0.00652 KA relative to UGCAUGU
28 | B28 | 0.00327 KA relative to UGCAUGU
29 | B29 | 0.024 KA relative to UGCAUGU
30 | B30 | 0.0111 KA relative to UGCAUGU
31 | B31 | 0.0182 KA relative to UGCAUGU
